B1: CPEB3 Ribozyme (parent)
chain: UAACAGGGGGCCACAGCAGAAGCGUUCACGUCGCAGCCCCUGUCAGAUUCUGGUGAAUCUGCGAAUUCUGCUGUAUAUCUC

Read counts are not given, so values of variants with three or more changes are uncertain.

This data set covers variants of B1. Briefly: self-cleavage, relative activity (ratio to wild type); higher = more cleavage; in vitro, sequencing. The method in brief:
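Libraries of CPEB3 self-cleaving ribozyme mutants came from rounds of error-prone PCR and carried barcodes, which DNA sequencing matched to variants. In vitro transcription used T7 RNA polymerase at 37°C for 5 hours, with a further 15 min in DNase I before EDTA stopped the reaction; the ribozymes cleaved during both steps. The RNA was reverse transcribed with template switching and sequenced on Illumina. Relative activity is the cleaved/total read fraction of a variant divided by that of the unmutated ribozyme, averaged over three batches with at least 5 reads.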
As to UAACAGGGGGCCACAACAGAAGCACUCACGUCGCAGCCCCUGUCAGAUACUGCUGAAUCUGCGAAUUCUGCUGUAUAUCUC [G16A G24A U25C U49A G53C], the self-cleavage is 0.05.

For UAACAGGGGGCCACAACAGGAGCGCUCACGUCGCAGCCCCUGUCAGAUUCUGGUGAAUCUGCGAAUUCUGCUGUAUAUCUC [G16A A20G U25C], the self-cleavage amounted to 0.19. The value for UAACAGGGGGCCACAACAGAAGCGUUCGCGUCGCAGCCCCUGUCAGAUUCUGGUGAAUCUGCGAAUUCUGCAGUAUCUCCC [G16A A28G U72A A77C U80C] was 0.33; that for UAACAGGGGGCCACUGCAGAAGCGUUCACGUCGCAGCCCCUGUCAGAUUCUGGUGAAUCCGCGAAUUCUGCUGUAUAUCCC [A15U U60C U80C] was 0.3; that for UAACAGGGGGCCACAACAGAAGCGCUCACGUCGCAGCCCCUGUCAGAUUCUGGUGGAACUGCGAAUUCAGCUGUAUAUCUC [G16A U25C A56G U58A U69A] was 0.07. In the case of UAACAGGGGGCCACAACAGAAGCGUUCUCGUCGCAGCCCCUGGCUGAUCCUGGCGAAUCUGCGGAUUCUGCUGUAUAUCUC [G16A A28U U43G A45U U49C U54C A64G] it was 0.06; in that of UAACAGGGGGCCACAACAGAAGCGCUCACGUCGCAGCCCCUGUCUGAUUCUGGUGUAUCUGCCAAUUCUGCUGUAUAUCUC [G16A U25C A45U A56U G63C], 0.2; in that of UAACAGGGGGCCACUGCAGAAGCGUUCACGUCGCAGCCCCUGUCAGAUUCUGGUGAAUCGGCGAAUACUGCUGUAUAUCUC [A15U U60G U67A], 0.12. In the case of UAACAGGGGGCCACAACAGUAGCGUUCACGUCGCGGCCCCUGUCAGAUUCUGGUGAAUCUGCGAAUUCUGCUGUAUAUCUC [G16A A20U A35G] it was 0.2; in that of UAACAGGGGGCCACAACAGGAGCGUUCACGUCGCAGCCCCUGUCUGAUCCUGGUGAAUCUGCGAAUUCUGCUGUAUAUCUC [G16A A20G A45U U49C], 0.17; in that of UAACAGGGGGCCACAACAGGAGCGUUCACGUCGCAGCCCCUGUCAGAUUCUGGAGAAUCUGCGAAUUCUGCUGUAUAUCUC [G16A A20G U54A], 0.25. For the variant UAACAGGGGGCCACUGCAGAAGCGUUCACGUCGCAGCCCCUGUCAGAUUCUGGCGACUCUGCGGAUUCUGCUGUAUAUCUC [A15U U54C A57C A64G], the self-cleavage stood at 0.13. With UAACAGGGGGCCACAACAGAACCGUUCACGUCGCAGCCCCUGUCGGAUUCUGGUGAAUCCGCGAAUUCUGCUGUAUAUCUC [G16A G22C A45G U60C], the self-cleavage amounted to 0.15. The value for UAACAGGGGGCCACAACAGAAGCGUUCACUUCGCAGCCCAUGUCAGAUUCUGGUGAAUCUGCGAAUUCAGCAGCAUAUCUC [G16A G30U C40A U69A U72A U74C] was 0.07; that for UAACAGGGGGCCACAACAGAGGCGUUCACGUCGCAGCCCCUGUCAGAUUCCGGUGAAUUGGCGAAUUCUUCUGUAUAUCUC [G16A A21G U51C C59U U60G G70U] was 0.01.

With UAACAGGGGGCCACAACAGAAGCGUUCACGUUGCAGCCCCUGUCAGAUUCUGGUGAAUCAGAGAAUUCUGCUGUAUAUCUC [G16A C32U U60A C62A], the self-cleavage was 0.06. For the variant UAACAGGGGGCCACAACAGAAGCGUCCACGUCGCAGCCCCUGUCAGAUACUGGUGAAACUGCGAAUUCUGCUGUGUAUCUC [G16A U26C U49A U58A A75G], the self-cleavage was 0.1.

UAACAGGGGGCCACAACAGGAGCGUUCACGUCUCAGCCCUUGUCAGUUUCUGGUGAAUCUGCGAGUUCUGCUGUAUAUCUC [G16A A20G G33U C40U A47U A65G]: the self-cleavage is 0.05. With UAACAGGGGGCCACAACGGAAGCGUUCACGUCGCAGCCCCUGUCAGAUUCUGGUGAAUCUGCGAAUUCUGCUGUAUAACUC [G16A A18G U78A], the self-cleavage was found to be 0.28. In the case of UAACAGGGGGCCACUGCAGAAGCGUUCACGUCGCAGCCCCUGUCAGAUUCUGGUGAAUCUGCGAAUCCUGCUGUACAUCUC [A15U U67C U76C] it was 0.18; in that of UAACAGGGGGCCACUGCAGAAGCGUUCACGUCGCAGCCCCUGUCAGAUUCUGGUGAAUCCGCGUAUUCUGCCGUAUAUCUC [A15U U60C A64U U72C], 0.11. The value for UAACAGGGGGCCACAACAGAAGCGUUCACGUUGCAGCCUCUGUCAGAUUCUGGUGAAUCUGCGAAUUCUGCUGUAUAUCUC [G16A C32U C39U] was 0.07; that for UAACAGGGGGCCACUGCAGAAGCGUUCACGUCGCAGCCCCUGUCAGAUUCCGGUGAAUCUGCGUAUUCUGCUGUAUAUCUC [A15U U51C A64U] was 0.41. On to UAACAGGGGGCCACAACAGAAGCGUUCAAGUCGCAGCCCCUGACAGAUUCUGGUGUAUCUGCGUAUUCUGCUGCAUACCUC [G16A C29A U43A A56U A64U U74C U78C], for which the self-cleavage came out at 0.06. On to UAACAGGGGGCCACUGCAGAAGCGUUCACGUCGCAGCCCCUGUCAGAUUCUGGUGAAUCUGCGAAUUCUGCCGUAAAUCUC [A15U U72C U76A], for which the self-cleavage stood at 0.58.

With UAACAGGGGGCCACAACAGAAGCGUUCUCGCCGCAGCCCCUGUCAGAUUCUGGUGAAUCCGCGAAUUCUGCUGUAUAUCUC [G16A A28U U31C U60C], the self-cleavage came to 0.14. Turning to UAACAGGGGGCCACAACAGAAGCGUCCACGUCGCAGCCCCUGUCAGAUUCUGGUGGAUCUGCGAAUUCUGCUGUAUAUCUC [G16A U26C A56G], the self-cleavage came out at 0.21. UAACAGGGGGCCACAACAGAAGCGAUCACGUCGCAGCCCCUGUCAGAUUCAGGAGAAUCUGCGAAUUCUGCUGUAUAUCUC [G16A U25A U51A U54A]: the self-cleavage stood at 0.06. As for UAACAGGGGGCCACAACAGAAGCGCUCACGUCGCAGCCCCUGUCAGAUUCAGGUGAAUCUGCGAAUUCUUCUGCAUAUCUC [G16A U25C U51A G70U U74C], the self-cleavage was 0.06. With UAACAGGGGGCCACUGCAGAAGCGUUCACGUCGCAGCCCCUGUCAGAUUCUGGUGAAUCUGCGAAUUCCGCUGUAAAUCUC [A15U U69C U76A], the self-cleavage came out at 0.36.

For the variant UAACAGGGGGCCACAACAGAAGCGUUCACGUUGCAGCCCCUGUCAGAUUCUGGUGAAUCUGCGAAUUCUGCGGUAUAUCUC [G16A C32U U72G], the self-cleavage came out at 0.13.

Regarding UAACAGGGGGCCACAACAGAAGCGUUCACGUCGCAGCCCCUGUCAGGUUCUGGUGAAUCUGUGAAUUCUGCUGUAUAUCUC [G16A A47G C62U], the self-cleavage was determined as 0.33. On to UAACAGGGGGCCACAACAGAAGCGCUCACGUCGCAGCCCCUGCCAGAUUCUGGUGAAUCUGCGAAUUCUGCUGAAUGUCUC [G16A U25C U43C U74A A77G], for which the self-cleavage was found to be 0.21. The value for UAACAGGGGGCCACUGCAGAAGCGUUCACGUCGCAGCCCCUGUCAGAUUCUGGUGAAUCCGCGAAUUCCGCAGUAUAUCUC [A15U U60C U69C U72A] was 0.15.
